According to the supplement of paper PMC12217912:
This is one part of the list. Sequences were assembled here from the parent chain. Values near 0.05 are background.

B1: TEV protease; numbered along this chain (parent)
chain: MGESLFKGPRDYNPISSSICHLTNESDGHTTSLYGIGFGPFIITNKHLFRRNNGTLVVQSLHGVFKVKDTTTLQQHLVDGRDMIIIRMPKDFPPFPQKLKFREPQREERICLVTTNFQTKSMSSMVSDTSCTFPSGDGIFWKHWIQTKDGQCGSPLVSTRDGFIVGIHSASNFTNTNNYFTSVPKNFMELLTNQEAQQWVSGWRLNADSVLWGGHKVFMVKPEEPFQPVKEATQL

Variants of: B1
Experiment: raw area under fraction-flipped curve 0-4 h after induction (AUC4h, not background-subtracted), DNA-recorder readout of cleavage of the substrate (dimensionless); higher = more cleavage of the substrate by the protease variant
Conditions: temperature: 34 °C; time window: 0-4 h after rhamnose induction
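Note: Bxb1 expression induced with 0.2% (w/v) L-rhamnose at OD600 near 0.5, cultures sampled hourly, flipped fraction per protease–substrate barcode pair counted by paired-end Illumina sequencing.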

| Variant | area with substrate ENLYFQD | area with substrate ENLYFQG | area with substrate ENLYFQK | area with substrate ENLYFQL | area with substrate ENLYFQN | area with substrate ENLYFQS | area with substrate ENLYFQI | area with substrate ENLYFQR | area with substrate ENLYFQY | area with substrate ENLYFQH |
| --- | --- | --- | --- | --- | --- | --- | --- | --- | --- | --- |
| F218T | 0.0678 | 0.0851 | 0.0542 | 0.0554 | 0.0791 | 0.103 |  |  |  |  |
| V58Q |  | 0.0495 |  |  | 0.0619 | 0.0587 | 0.0511 | 0.0622 | 0.0299 |  |
| R204A | 0.0755 | 0.128 | 0.0746 | 0.0579 | 0.0735 | 0.119 | 0.0719 | 0.0694 |  | 0.102 |
| N175W |  |  | 0.0509 |  |  | 0.0764 | 0.045 |  |  |  |
| T132H |  | 0.0682 | 0.102 |  |  | 0.0773 |  | 0.0647 | 0.0562 |  |
| Q151A |  | 0.0968 |  |  | 0.0642 | 0.0977 | 0.0363 | 0.06 |  |  |
| V210T |  | 0.102 | 0.0629 | 0.0714 | 0.0653 | 0.0938 |  | 0.0564 |  |  |
| I139L | 0.0692 | 0.0927 | 0.0588 | 0.0603 | 0.0885 | 0.115 |  | 0.0601 |  |  |
| I139E | 0.0625 |  | 0.0736 |  |  | 0.106 | 0.0678 |  |  | 0.0757 |
| I164K | 0.0592 |  | 0.0389 |  |  | 0.0538 |  |  |  |  |
| P225S | 0.0756 | 0.0888 | 0.0587 |  |  | 0.108 | 0.0761 | 0.0575 |  | 0.0961 |
| R87G |  | 0.0749 |  | 0.0591 |  | 0.0875 |  |  |  | 0.0683 |
| E189S |  |  |  | 0.0588 | 0.0934 | 0.0924 | 0.0594 | 0.0601 |  |  |
| E189W | 0.0764 | 0.0859 |  |  | 0.0745 | 0.106 | 0.0434 | 0.0543 |  |  |
| L5Y |  | 0.0921 | 0.0517 | 0.0779 | 0.125 | 0.118 | 0.0512 | 0.0595 |  |  |
| N193R | 0.0544 |  | 0.0632 |  | 0.0793 | 0.0893 |  |  |  |  |
| P93Y |  | 0.0711 |  | 0.0837 |  | 0.0948 | 0.0609 |  |  |  |
| P93N |  |  |  | 0.0572 |  | 0.0997 |  | 0.0544 | 0.0733 | 0.0917 |
| F117D |  | 0.168 |  |  |  | 0.0908 | 0.0617 | 0.0624 | 0.0808 |  |
| F226S | 0.0807 | 0.0942 | 0.0635 | 0.0589 | 0.0879 | 0.108 | 0.0531 | 0.0648 |  |  |

Same assay, conditions: temperature: 34 °C; time window: 0-4 h after rhamnose induction

| Variant | area with substrate ENLYFQM | area with substrate ENLYFQQ | area with substrate ENLYFQE | area with substrate ENLYFQP | area with substrate ENLYFQT | area with substrate ENLYFQV | area with substrate ENLYFQW | area with substrate ENLYFQF |
| --- | --- | --- | --- | --- | --- | --- | --- | --- |
| R204A | 0.102 | 0.0501 |  |  |  |  |  |  |
| N175W |  |  | 0.0554 | 0.0674 | 0.0584 |  |  |  |
| T132H | 0.0797 |  |  |  | 0.0481 |  |  |  |
| Q151A |  | 0.0624 |  |  | 0.0562 | 0.0602 | 0.0684 |  |
| V210T | 0.0482 |  |  | 0.0575 | 0.0742 | 0.0565 |  | 0.0553 |
| I139L | 0.0901 |  |  | 0.0657 | 0.0751 |  | 0.0752 | 0.0907 |
| I139E | 0.0952 |  | 0.0599 |  | 0.0697 | 0.0634 |  |  |
| I164K |  |  |  |  |  |  |  | 0.0492 |
| P225S |  |  |  |  | 0.0568 | 0.0569 | 0.0583 |  |
| E189S | 0.0927 |  |  |  | 0.0579 |  |  | 0.069 |
| E189W | 0.0933 |  |  | 0.0353 | 0.0679 | 0.0641 | 0.0654 | 0.0686 |
| L5Y | 0.107 |  |  | 0.0426 | 0.0768 | 0.0637 |  | 0.0888 |
| P93Y |  |  |  | 0.0741 | 0.0612 | 0.0588 |  |  |
| P93N |  |  | 0.0509 |  |  |  |  |  |
| F117D |  |  | 0.0812 |  |  |  | 0.0587 |  |
| F226S | 0.103 | 0.0788 |  | 0.0309 | 0.076 | 0.0716 | 0.0685 |  |
